# Experimental data published in PubChem BioAssay AID894 (National Center for Advancing Translational Sciences (NCATS), 2007).
# Out of some 150,000 compounds screened, about 6,500 (4.3%) were called active. This list was built around the results that the source calls inconclusive (neither active nor inactive); the mix of calls is not that of the screen. Calls come from the whole dose curve; as a rule, active = well fitted inhibition curve with a large enough effect (not every such curve was filed as active); inconclusive = small, poorly fitted or top-dose-only effect, or another doubt; inactive = no such curve, though single readings can be large or run the other way. Potencies of inconclusive entries are left out as doubtful fits.
# Molecular target: 15-hydroxyprostaglandin dehydrogenase [NAD(+)] (Homo sapiens) (UniProt P15428)
# Experiment: qHTS Assay for Inhibitors of HPGD (15-Hydroxyprostaglandin Dehydrogenase)
# Settings: purified HPGD, NADH fluorescence kinetic, PGE2 substrate; activity change, negative = inhibition: stronger effect = lower value
# In short: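 20 nM HPGD preincubated 15 min at room temperature with compound in 50 mM Tris-HCl pH 8, 0.01% Tween 20. Started with 1 mM NAD+ and 30 uM prostaglandin E2; NADH fluorescence (360/450 nm) read 5 times over 30-s intervals, last minus first.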
# % is set by controls: 0 for no effect and ±100 for the full control effect; potency is the fitted concentration of half-maximal effect; tags give direction and shape of the fitted curve.
# Sequence of UniProt P15428 (P15428 whole entry, looked up): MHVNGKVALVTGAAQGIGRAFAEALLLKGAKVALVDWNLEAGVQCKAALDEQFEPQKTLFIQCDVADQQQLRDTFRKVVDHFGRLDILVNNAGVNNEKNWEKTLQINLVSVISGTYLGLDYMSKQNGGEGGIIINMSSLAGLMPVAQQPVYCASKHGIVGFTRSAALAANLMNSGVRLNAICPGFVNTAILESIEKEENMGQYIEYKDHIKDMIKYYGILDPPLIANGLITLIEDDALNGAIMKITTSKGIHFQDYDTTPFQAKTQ
Structure (SMILES),Potency,"activity change, negative = inhibition"
O=C(O)/C=C/C(=O)Nc1ccccc1SC(F)(F)F,"inconclusive [inhibitor, single point]",
CC(=O)c1c(C)nc(-c2ccc(Cl)cc2)nc1N=CN(C)C,"inconclusive [inhibitor, partial curve]",
CCOC(=O)/C(C(=O)Nc1ccccc1Cl)=C1/NC(C)(C)Cc2ccccc21,,inactive: -25.6%
CCOc1c2ccc(C(=O)NCc3ccc4c(c3)OCO4)cc2nn1C,"inconclusive [inhibitor, partial curve]",
CC(=O)C1=C(C)NC(SCC(=O)c2ccccc2)=C(C#N)C1CC(C)C (stereo unspecified),active: 31.6 µM,
Cc1sc(NC(=O)c2cccs2)c(C(N)=O)c1C,active: 25.1 µM,
Cc1ccccc1OCc1nnc(SCC(=O)Nc2ccc3c(c2)oc2ccccc23)n1C,"inconclusive [inhibitor, single point]",
CCOc1cccc2sc(NC(=O)c3ccc(Br)s3)nc12,"inconclusive [inhibitor, single point]",
O=C(OCn1nnc2ccccc2c1=O)c1cc(-c2ccccc2)nc2ccccc12,"inconclusive [inhibitor, single point]",
CC1CCN(C2=C(NS(=O)(=O)c3ccc(Cl)cc3)C(=O)c3ccccc3C2=O)CC1,,inactive: -6.93%
CCn1c(=O)c2cc(C(=O)Nc3cc(C)on3)sc2c2ccccc21,"inconclusive [inhibitor, partial curve]",
CCOC(=O)c1[nH]c2ccc(OC)cc2c1NC(=O)CCN1CCCC(C)C1 (stereo unspecified),"inconclusive [inhibitor, partial curve]",
CCOCCCNC(=O)C1CCC(CNS(=O)(=O)c2ccc(F)cc2)CC1 (stereo unspecified),"inconclusive [inhibitor, single point]",
COc1cccc(C(c2sc3ncnn3c2O)N2CCc3ccccc3C2)c1 (stereo unspecified),"inconclusive [inhibitor, single point]",
O=C(COc1ccc2ccccc2c1)N1CCN(C(=O)c2cccnc2)CC1,,inactive: -6.69%
Cc1nc(SCC(=O)Nc2ccc(N3CCOCC3)cc2)nc(C)c1C,,inactive: -19.1%
O=C(CNc1ccc(C(F)(F)F)cc1[N+](=O)[O-])OCC(=O)c1ccccc1,"inconclusive [inhibitor, partial curve]",
CCc1cc2c(=O)c(-c3nc4ccccc4n3C)c(C)oc2c(CN(CC)CC)c1O,"inconclusive [inhibitor, single point]",
COc1cccc2[nH]c3c(=O)n(CCN(C)C)cnc3c12,"inconclusive [inhibitor, partial curve]",
C=CCSc1nnc(-c2ccc(Cl)cc2Cl)o1,active: 11.2 µM,
O=C(CCS(=O)(=O)c1ccccc1)Nc1nc2c(s1)COc1ccccc1-2,"inconclusive [inhibitor, single point]",
COCCN=C1Sc2nc3c(C)cccc3cc2CN1Cc1ccco1,active: 22.4 µM,
Cn1nc(OC(=O)Nc2ccc(Cl)cc2)cc1C(F)(F)F,,inactive: -6.96%
COc1ccc(OC)c(CNC(=O)Cc2c(C(=O)O)[nH]c3ccccc23)c1,,inactive: -10.9%

Structure (SMILES),Potency,"activity change, negative = inhibition"
COc1ccc(/C=C(\NC(=O)c2ccccc2)C(=O)N/N=C/c2sccc2C)cc1,"inconclusive [inhibitor, single point]",
CCSc1ccc(-c2nn(-c3ccccc3)cc2/C=C(/C#N)C(=O)NCCCOC)cc1,"inconclusive [inhibitor, partial curve]",
CCCCCC(=O)NC(=S)Nc1ccc(N2CCOCC2)cc1,,inactive: -8.52%
CC(=O)N1CCN(C(=S)c2ccc([N+](=O)[O-])cc2)CC1,active: 31.6 µM,
COCCCNC(=O)C1CCN(c2ncccn2)CC1,"inconclusive [inhibitor, partial curve]",
O=C(CN(c1ccc(Cl)c(C(F)(F)F)c1)S(=O)(=O)c1ccccc1)N/N=C/c1cccc2c1OCCO2,"inconclusive [inhibitor, single point]",
O=c1cc(N2CCOCC2)cnn1-c1ccccc1,,inactive: -9.37%
Cc1ccc(C(=O)Nc2ncc(Cc3ccc(SC(F)F)cc3)s2)cc1,,inactive: -5.58%
Cc1cnc(CNc2nc(-c3ccc(C(=O)N(C)C)cc3)nc3ccccc23)cn1,active: 14.1 µM,
CCc1ccc(C(=O)CSC2=C(C#N)C(c3ccco3)C(C(C)=O)=C(C)N2)cc1 (stereo unspecified),"inconclusive [inhibitor, single point]",
Cc1cc(C)c(S(=O)(=O)Nc2cc(SCC(=O)O)c(O)c3ccccc23)cc1C,active: 1.12 µM,
CC(C(=O)NC1CCCC1)N(Cc1ccco1)C(=O)c1snc(C(=O)NC2CCCC2)c1N (stereo unspecified),,inactive: -29.4%
Cc1cccc(NC(=S)NCCC(C)C)c1,active: 28.2 µM,
CC(=O)N1CCc2cc(S(=O)(=O)NC(C(=O)NC3CCCc4ccccc43)C(C)C)ccc21 (stereo unspecified),"inconclusive [inhibitor, single point]",
CCCOC(=O)Nc1cccc(C(C)=O)c1,active: 10 µM,
CCOC(=O)C(Oc1ccc2c(-c3ccc(OC)cc3)cc(=O)oc2c1C)c1ccccc1 (stereo unspecified),"inconclusive [inhibitor, partial curve, poor fit]",
CC(C)C(NC(=O)OCc1ccccc1)C(=O)NC1CCCCC1 (stereo unspecified),,inactive: -7.73%
COCCNC(=O)COc1ccccc1Cl,"inconclusive [inhibitor, partial curve]",
CCCOc1ccc(Br)cc1/C=N/O,active: 10 µM,
Cc1cc(C)n(-c2ccc(C(=O)Nc3nc4ccccc4s3)cc2)n1,"inconclusive [inhibitor, partial curve]",
O=C1/C(=C/c2cccnc2)Oc2cc(OS(=O)(=O)c3ccc(Cl)cc3)ccc21,,inactive: -23%
C/C(=N\Nc1ccc(Cl)cc1)c1ccccn1,,inactive: -15.2%
CCc1ccc(N(C(=O)c2ccoc2C)C(C(=O)NC2CCCC2)c2ccc(OC)cc2)cc1 (stereo unspecified),,inactive: -4.73%
CC(=O)Nc1ccc2nc(-c3ccccn3)[nH]c2c1,"inconclusive [inhibitor, partial curve]",

Structure (SMILES),Potency,"activity change, negative = inhibition"
CCOC(=O)c1sc2nc(N3CCCC3)c3c(c2c1N)CC(C)(C)OC3,"inconclusive [inhibitor, partial curve]",
CCOC(=O)C1=C(C)N=c2s/c(=C3\C(=O)Nc4ccccc43)c(=O)n2C1c1ccc2c(c1)OCO2 (stereo unspecified),"inconclusive [inhibitor, single point]",
Cc1cc(=O)oc2cc(OCCSc3nnc(-c4ccccc4)o3)ccc12,"inconclusive [inhibitor, partial curve]",
CC(C)NC(=O)Cn1c(SCC(=O)N2CCCc3ccccc32)nc2ccccc21,,inactive: -3.87%
COc1ccc2[nH]c3c(N4CCC(O)(c5cccc(C(F)(F)F)c5)CC4)ncnc3c2c1,"inconclusive [inhibitor, partial curve]",
CCCCCc1ccc(-c2ccc(/C=C/C(N)=O)cc2)nc1,"inconclusive [inhibitor, partial curve]",
CCN(CC)C(=O)c1ccc(C(=O)c2ccccc2)cc1,active: 1 µM,
O=C1NC(c2ccccc2)=N/C1=C/c1ccco1,"inconclusive [inhibitor, partial curve]",
S=c1nc(-c2cccc(Br)c2)[nH][nH]1,"inconclusive [inhibitor, partial curve]",
CCN(CC)S(=O)(=O)c1ccc(N/N=C/c2cc(OC)c(OC)cc2OC)nc1,"inconclusive [inhibitor, partial curve]",
CCCc1nc(SCC(=O)N2CCc3ccccc32)c2c(C)c(C)sc2n1,,inactive: -5.25%
CCCCc1nc2c(c3c1C[C@H](C)OC3)CN(C(=O)NCc1ccco1)CC2,,inactive: -5.95%
Fc1ccc(-n2[nH]nnc2=S)cc1N1CCCC1,active: 17.8 µM,
COc1ccc(-n2c(=O)cc(N3CCN(c4ccccc4OC)CC3)[nH]c2=O)cc1,,inactive: -9.4%
COc1ccc(C2Nc3ccccc3C(=O)N2c2ccccc2)cc1CSc1ccccn1 (stereo unspecified),"inconclusive [inhibitor, partial curve]",
COc1ccc2nc(SCC(=O)Nc3ccc(S(=O)(=O)Nc4nccc(C)n4)cc3)[nH]c2c1,active: 28.2 µM,
O=C(c1ccc2nc(N3CCCCC3)sc2c1)N1CCN(c2ccccn2)CC1,"inconclusive [inhibitor, partial curve]",
COCCCNC(=O)c1ccc(CNS(=O)(=O)c2ccc(NC(C)=O)cc2)cc1,"inconclusive [inhibitor, partial curve]",
CCOc1ccc(C(C)=O)cc1N1C(=O)C2C3C=CC(O3)C2C1=O (stereo unspecified),active: 28.2 µM,
CN(/N=C/c1cccnc1)c1cnn(-c2ccc(F)c(Cl)c2)c(=O)c1Cl,"inconclusive [inhibitor, partial curve]",
C=CCSc1nnc(CCCCCN2C(=O)c3cccc4cccc(c34)C2=O)o1,"inconclusive [inhibitor, single point]",
COCCCn1c(SCC(=O)Nc2sc3c(c2C#N)CCCC3)nnc1-c1ccncc1,"inconclusive [inhibitor, partial curve]",
COC(=O)c1cnn2c(C(F)(F)F)cc(-c3ccc(F)cc3)nc12,"inconclusive [inhibitor, partial curve]",
